Assay results from PMC4336329 (PLoS ONE, 2015).
The whole screen tested about 310,000 compounds, of which about 2,200 (0.71%) showed an effect of 50% or more. The effect is printed as a negative number. Some of the results follow.

Biological target: human ether-à-go-go-related gene (hERG) potassium channel (human, UniProt Q12809)
Assay: primary screen, population patch clamp on CHO cells stably expressing hERG

Sequence of human ether-à-go-go-related gene (hERG) potassium channel (Q12809 whole entry, looked up): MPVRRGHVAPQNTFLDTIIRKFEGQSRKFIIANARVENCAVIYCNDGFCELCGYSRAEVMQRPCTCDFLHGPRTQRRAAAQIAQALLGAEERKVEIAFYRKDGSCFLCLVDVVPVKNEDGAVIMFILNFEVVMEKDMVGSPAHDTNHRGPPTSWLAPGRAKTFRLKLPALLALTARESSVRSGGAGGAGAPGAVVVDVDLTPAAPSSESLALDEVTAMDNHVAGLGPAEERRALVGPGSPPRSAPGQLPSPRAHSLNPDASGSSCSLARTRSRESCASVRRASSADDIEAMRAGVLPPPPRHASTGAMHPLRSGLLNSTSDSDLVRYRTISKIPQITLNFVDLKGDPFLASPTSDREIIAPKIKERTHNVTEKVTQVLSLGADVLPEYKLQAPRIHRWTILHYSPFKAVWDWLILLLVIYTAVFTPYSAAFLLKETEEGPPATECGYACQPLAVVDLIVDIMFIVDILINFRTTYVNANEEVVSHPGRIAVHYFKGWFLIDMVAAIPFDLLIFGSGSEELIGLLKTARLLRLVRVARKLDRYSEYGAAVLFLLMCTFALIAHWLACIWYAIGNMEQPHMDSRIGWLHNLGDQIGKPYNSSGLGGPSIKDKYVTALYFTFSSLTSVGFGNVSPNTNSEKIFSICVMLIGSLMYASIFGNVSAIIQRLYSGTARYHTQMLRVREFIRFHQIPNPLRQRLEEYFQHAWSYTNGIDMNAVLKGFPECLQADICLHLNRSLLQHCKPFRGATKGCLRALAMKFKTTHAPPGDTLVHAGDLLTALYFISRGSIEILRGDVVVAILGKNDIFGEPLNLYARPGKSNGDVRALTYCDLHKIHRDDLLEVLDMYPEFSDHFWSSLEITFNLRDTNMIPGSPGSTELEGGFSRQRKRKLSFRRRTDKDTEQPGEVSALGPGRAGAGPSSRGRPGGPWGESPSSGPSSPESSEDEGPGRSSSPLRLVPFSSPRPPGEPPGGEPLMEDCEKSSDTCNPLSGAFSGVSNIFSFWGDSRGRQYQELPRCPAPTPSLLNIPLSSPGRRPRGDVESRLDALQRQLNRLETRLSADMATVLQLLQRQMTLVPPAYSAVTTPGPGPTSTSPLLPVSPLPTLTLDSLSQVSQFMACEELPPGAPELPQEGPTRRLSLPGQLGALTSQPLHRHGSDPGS

Row | Compound | hERG current change (%, negative = inhibition) at 1uM [%]
1 | c1ccc(CCc2cn(C[C@H]3CC[C@@H]([C@@H]4CC[C@H](Cn5cc(CCc6ccccc6)nn5)O4)O3)nn2)cc1 | -11.7
2 | Cc1cc(C(=O)COC(=O)c2ccc[nH]c2=O)c(C)n1-c1ccccc1 | 6.39
3 | CCc1cccc(NC(=O)Cn2c(=O)n(CCC(=O)NCC3CCCO3)c(=O)c3cc(OC)c(OC)cc32)c1 (stereo not drawn) | 5.23
4 | Cn1nnc2c(NCc3ccco3)nccc21 | 2.04
5 | O=C(COC(=O)C1CC2C=CC1C2)NCc1ccco1 (stereo not drawn) | 6.93
6 | O=C(NCc1ccccn1)C(C(=O)c1cccc([N+](=O)[O-])c1)n1cc(Cl)ccc1=O (stereo not drawn) | 18.9
7 | COc1nc(-c2ccccc2)cc(-c2ccccc2)n1 | -3.93
8 | CC(Sc1cccc(C(F)(F)F)c1)C(=O)NC(N)=O (stereo not drawn) | 13.9
9 | CCOc1ccc(NC(=O)c2ccc3c(=O)n4c(nc3c2)CCCCC4)cc1 | 14.8
10 | O=C(c1cc2c(s1)CCCC2)N1CCC2(CC1)OCCO2 | 2.7
11 | COC(=O)c1sccc1-n1cccc1C(=O)C(=O)N1CCCCC1 | 6.44
12 | COc1ccc(C(=O)Nc2ccccc2C(=O)Nc2ccncc2)cc1 | 12.4
13 | Cc1ccc(Nc2nnc(SCC(=O)N(C)C3CCS(=O)(=O)C3)s2)cc1 (stereo not drawn) | 9.88
14 | COc1cccc(-n2c(N)c(-c3nc4ccccc4[nH]3)sc2=S)c1 | 15.7
15 | Cc1cccc(N2CCN(C(=O)c3nn(C)c4c3CS(=O)(=O)c3ccccc3-4)CC2C)c1 (stereo not drawn) | 8.87
16 | CC(Sc1nc(N2CCOCC2)c2c(c1C#N)CC(C)(C)OC2)C(=O)O (stereo not drawn) | 16
17 | Cc1cc(C)cc(C(=O)Oc2cc(C)[nH]c(=O)c2[N+](=O)[O-])c1 | 17
18 | CCCCOc1ccc(Nc2cc(Cl)ccc2C(=O)O)cn1 | 15.6
19 | C=CCn1c(CNC(=O)c2cccs2)n[nH]c1=S | 8.99
20 | COc1ccc(Nc2nc(NCc3ccco3)nc(N)c2[N+](=O)[O-])cc1 | 18
21 | Cc1cc(Br)ccc1NC(=O)CN(C)C(=O)C1CCN(C(=O)c2ccc(F)cc2)CC1 | -27.8
22 | CC1(C)CC(=O)C=C(C(=O)N2CCCC(CCC(=O)NCc3ccccc3F)C2)O1 (stereo not drawn) | 9.41
23 | O=C(Cc1ccc(-n2c(=S)[nH]c3ccccc3c2=O)cc1)N1CCN(c2ccccc2)CC1 | 11.7
24 | COc1ccc(N2C(=O)c3cc4ccccc4cc3C2=O)cc1 | 8.97
